Results from paper PMC12199413.
Results are given in words; binding and its absence hold for the method and conditions named. In cells and extracts the contact can be indirect. Some results given as binding are weak or reduced against the parent protein; the word gives no strength.

Sequences of proteins named here, by UniProt entry; tags and fusion partners are left off.
UniProt Q80U70: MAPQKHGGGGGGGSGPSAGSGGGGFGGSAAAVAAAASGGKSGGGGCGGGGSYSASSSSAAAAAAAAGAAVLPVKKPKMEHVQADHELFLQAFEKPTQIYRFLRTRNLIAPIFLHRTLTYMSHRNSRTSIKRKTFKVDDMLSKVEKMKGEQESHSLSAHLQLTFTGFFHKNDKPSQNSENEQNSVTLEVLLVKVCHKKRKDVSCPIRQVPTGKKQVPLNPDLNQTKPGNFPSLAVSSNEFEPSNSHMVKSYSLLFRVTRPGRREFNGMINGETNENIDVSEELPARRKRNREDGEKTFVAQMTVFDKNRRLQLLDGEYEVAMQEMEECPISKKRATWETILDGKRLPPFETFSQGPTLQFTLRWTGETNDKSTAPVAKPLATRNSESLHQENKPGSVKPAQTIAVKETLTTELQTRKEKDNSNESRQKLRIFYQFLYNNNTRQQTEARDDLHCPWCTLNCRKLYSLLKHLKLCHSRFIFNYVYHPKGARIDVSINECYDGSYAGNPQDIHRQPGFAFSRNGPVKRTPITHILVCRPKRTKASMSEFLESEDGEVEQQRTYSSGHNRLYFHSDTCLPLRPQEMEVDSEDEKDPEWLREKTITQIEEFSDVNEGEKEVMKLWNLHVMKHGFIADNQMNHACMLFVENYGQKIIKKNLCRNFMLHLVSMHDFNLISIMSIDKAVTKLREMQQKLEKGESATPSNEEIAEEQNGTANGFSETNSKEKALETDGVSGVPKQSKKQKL
UniProt Q921E6: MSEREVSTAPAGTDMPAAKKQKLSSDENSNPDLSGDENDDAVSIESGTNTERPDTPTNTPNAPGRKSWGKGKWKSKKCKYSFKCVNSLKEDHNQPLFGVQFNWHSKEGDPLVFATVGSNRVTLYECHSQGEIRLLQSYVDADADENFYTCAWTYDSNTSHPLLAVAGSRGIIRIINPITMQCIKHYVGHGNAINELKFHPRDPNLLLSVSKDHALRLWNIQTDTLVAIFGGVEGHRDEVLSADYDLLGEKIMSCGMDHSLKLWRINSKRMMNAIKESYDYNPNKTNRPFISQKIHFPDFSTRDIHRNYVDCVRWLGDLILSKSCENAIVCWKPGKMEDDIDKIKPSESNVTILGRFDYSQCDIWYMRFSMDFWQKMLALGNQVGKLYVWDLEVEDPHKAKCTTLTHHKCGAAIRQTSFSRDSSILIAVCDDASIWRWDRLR
UniProt Q61188: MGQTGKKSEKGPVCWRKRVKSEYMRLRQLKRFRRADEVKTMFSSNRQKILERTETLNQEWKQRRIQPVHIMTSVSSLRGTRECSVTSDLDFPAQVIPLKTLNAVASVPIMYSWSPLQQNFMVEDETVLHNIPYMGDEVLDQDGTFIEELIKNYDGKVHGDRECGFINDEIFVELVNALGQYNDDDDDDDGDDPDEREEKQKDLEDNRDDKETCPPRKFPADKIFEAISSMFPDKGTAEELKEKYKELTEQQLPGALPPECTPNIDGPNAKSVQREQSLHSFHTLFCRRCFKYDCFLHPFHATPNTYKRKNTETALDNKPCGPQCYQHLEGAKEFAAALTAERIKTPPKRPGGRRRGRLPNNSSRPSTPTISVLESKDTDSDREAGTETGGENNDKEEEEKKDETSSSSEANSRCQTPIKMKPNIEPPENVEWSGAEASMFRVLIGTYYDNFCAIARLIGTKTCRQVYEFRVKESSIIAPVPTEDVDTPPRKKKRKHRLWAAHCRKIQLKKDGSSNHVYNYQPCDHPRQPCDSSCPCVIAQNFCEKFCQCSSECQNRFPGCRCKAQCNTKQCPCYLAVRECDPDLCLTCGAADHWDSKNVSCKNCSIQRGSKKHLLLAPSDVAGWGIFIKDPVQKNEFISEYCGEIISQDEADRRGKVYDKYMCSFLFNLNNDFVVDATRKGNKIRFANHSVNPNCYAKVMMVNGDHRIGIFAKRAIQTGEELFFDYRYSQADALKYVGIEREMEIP

Experiments:
[1] = molecular target: SUZ12 polycomb repressive complex 2 subunit (mouse (endogenous in C2C12)) (UniProt Q80U70); experiment: co-IP; C2C12 myoblasts treated with RNase (RNase T1 in the legend); lysate, specific antibodies and Protein A/G agarose beads, Western blot
[2] = molecular target: SUZ12 polycomb repressive complex 2 subunit (mouse (endogenous in C2C12)) (UniProt Q80U70); experiment: co-IP; C2C12 myoblast lysate, specific antibodies and Protein A/G agarose beads (Magnetic Co-IP Kit, BersinBio), Western blot; control cells, DNase I, lncRNA-MEG3 overexpression or reintroduction
[3] = molecular target: SUZ12 polycomb repressive complex 2 subunit (mouse (endogenous in C2C12)) (UniProt Q80U70); experiment: co-IP; C2C12 myoblasts with knockdown of lncRNA-MEG3 (shRNA); lysate, specific antibodies and Protein A/G agarose beads, Western blot

| binding [2] | Substance | binding [1] | binding [3] |
| --- | --- | --- | --- |
| binds | EED (from UniProt Q921E6 1-441) | no binding (condition: RNase treatment (RNase T1)) | no binding (condition: lncRNA-MEG3 knockdown) |
|  | EZH2 (from UniProt Q61188 1-746) | no binding (condition: RNase treatment (RNase T1)) | no binding (condition: lncRNA-MEG3 knockdown) |
